# Hit rate of the full screen: of about 39,000 compounds, about 220 (0.56%) showed activity. This is one part of the list.
# System: Escherichia coli K-12 BW25113
# Experiment: relative growth (OD600 normalised to plate interquartile mean) (fraction); higher = less growth inhibition, active = 0.2 or less
# Settings: 50 µM; LB; incubation time: overnight (16-24 h)
# 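Further: static incubation at 37 °C against the wild-type strain, values averaged over two biological replicates.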
row,SMILES,relative growth
1,Cc1noc(C)c1S(=O)(=O)Nc1ccc2c(c1)C(=O)N([C@@H](C)CO)C[C@@H](C)[C@H](CN(C)S(=O)(=O)c1ccc(Cl)cc1)O2,inactive: 0.995
2,CCOC(=O)C(CCc1ccccc1)NC(C)C(=O)N1CCCC1C(=O)O.O=C(O)C=CC(=O)O (stereo not drawn),inactive: 1.07
3,CCOc1cc(CC(=O)NC(CC(C)C)c2ccccc2N2CCCCC2)ccc1C(=O)O (stereo not drawn),inactive: 0.844
4,CCS(=O)(=O)Nc1ccc2c(c1)C(=O)N(C)[C@H]1CC[C@H](CC(=O)N3CCN(C)CC3)O[C@H]1CO2,inactive: 1.01
5,CCc1nc(C(N)=O)c(Nc2ccc(N3CCC(N4CCN(C)CC4)CC3)c(OC)c2)nc1NC1CCOCC1,inactive: 0.995
6,Cc1noc(C)c1NC(=O)Nc1ccc2c(c1)C(=O)N([C@H](C)CO)C[C@@H](C)[C@H](CN(C)C(=O)Nc1ccc(C(F)(F)F)cc1)OCCCC[C@@H](C)O2,inactive: 1.02
7,O=C(NCc1ccc(F)cc1)[C@@H]1[C@@H](CO)[C@@H]2Cn3c(cccc3=O)[C@H]1N2C(=O)c1cnccn1,inactive: 1.01
8,C[C@H]1CN([C@@H](C)CO)C(=O)Cc2cc(NC(=O)CCN3CCOCC3)ccc2O[C@@H]1CN(C)CC1CC1,inactive: 1
9,Cc1noc(C)c1NC(=O)N(C)C[C@H]1Oc2ccc(NC(=O)Nc3ccc(C(F)(F)F)cc3)cc2CC(=O)N([C@H](C)CO)C[C@@H]1C,inactive: 1.01
10,Cc1ccc(S(=O)(=O)N(C)C[C@@H]2Oc3ccc(NS(C)(=O)=O)cc3CC(=O)N([C@H](C)CO)C[C@@H]2C)cc1,inactive: 0.998
11,c1cc(CN2CCCNCCNCCCNCC2)ccc1CN1CCCNCCNCCCNCC1,inactive: 0.851
12,C[C@@H]1CN([C@H](C)CO)C(=O)CCCn2nncc2CO[C@H]1CN(C)C(=O)Nc1cccc(C(F)(F)F)c1,inactive: 0.974
13,O=C(C[C@H]1CC[C@@H]2[C@H](COC[C@H](O)CN2C(=O)Nc2ccc(Cl)cc2)O1)NC1Cc2ccccc2C1,inactive: 0.957
14,COc1ccc(S(=O)(=O)N(C)C[C@@H]2Oc3ccc(NC(=O)Cc4ccccc4)cc3CC(=O)N([C@H](C)CO)C[C@H]2C)cc1,inactive: 1
15,CC(=O)N1CC(=O)N(c2cnn(C)c2)C[C@]12CCN(C(=O)N(C)C)C2,inactive: 1.01
16,O=C(C[C@@H]1C[C@@H]2c3cc(NS(=O)(=O)c4ccc(F)cc4)ccc3O[C@@H]2[C@@H](CO)O1)NCc1ccc(Oc2ccccc2)cc1,inactive: 0.998
17,Cc1noc(C)c1S(=O)(=O)N(C)C[C@@H]1Oc2ccc(NC(=O)NC(C)C)cc2CC(=O)N([C@@H](C)CO)C[C@H]1C,inactive: 1
18,O=C(Oc1ccccc1C(=O)O)c1ccccc1O,inactive: 1.04
19,NC(=CS(=O)(=O)Cc1ccc(F)cc1)NO,inactive: 1.01
20,Cc1noc(C)c1S(=O)(=O)Nc1ccc2c(c1)C(=O)N([C@@H](C)CO)C[C@@H](C)[C@H](CN(C)C(=O)Nc1ccc(C(F)(F)F)cc1)OCCCC[C@H](C)O2,inactive: 0.935

row,SMILES,relative growth
1,Cc1ccc(S(=O)(=O)Nc2ccc3c(c2)C(=O)N([C@H](C)CO)C[C@H](C)[C@@H](CN(C)S(C)(=O)=O)OCCCC[C@@H](C)O3)cc1,inactive: 1.03
2,C[C@H](CO)N1C[C@H](C)[C@H](CN(C)C(=O)Nc2ccc(F)cc2)Oc2ccc(NC(=O)C3CC3)cc2CC1=O,inactive: 0.993
3,CCN1[C@@H]2O[C@@H]3O[C@H]4[C@H](O[C@H]3O[C@@H]2N(CC)S1(=O)=O)N(CC)S(=O)(=O)N4CC,inactive: 0.99
4,C[C@H](CO)N1C[C@H](C)[C@H](CN(C)Cc2ccc(Oc3ccccc3)cc2)Oc2ccc(NC(=O)Cc3ccccc3)cc2C1=O,inactive: 0.99
5,O=C(O)c1ccc(S(=O)(=O)N(Cl)Cl)cc1,inactive: 1.03
6,C[C@@H]1CN([C@@H](C)CO)C(=O)c2cc(NC(=O)Cc3ccccc3)ccc2O[C@@H]1CN(C)S(=O)(=O)c1ccccc1,inactive: 0.994
7,COc1cc(/C=C/C(=O)N2CCC=CC2=O)cc(OC)c1OC(=O)CCCCCCCCCCC(=O)Oc1c(OC)cc(/C=C/C(=O)N2CCC=CC2=O)cc1OC,inactive: 1.02
8,COc1ccc(NC(=O)Nc2ccc3c(c2)C(=O)N([C@H](C)CO)C[C@H](C)[C@@H](CN(C)S(=O)(=O)c2c(C)noc2C)OCCCC[C@@H](C)O3)cc1,inactive: 1.02
9,O=C(Nc1cccnc1)c1nc2ncccn2n1,inactive: 1.01
10,C[C@@H]1CCCCO[C@@H](CN(C)C(=O)c2ccccc2)[C@H](C)CN([C@@H](C)CO)C(=O)c2cc(NC(=O)C3CCCCC3)ccc2O1,inactive: 0.996
11,C[C@H](CO)N1C[C@H](C)[C@H](CN(C)C(=O)Nc2ccc3c(c2)OCO3)OCCCC[C@H](C)Oc2ccc(NC(=O)Nc3ccc(F)cc3)cc2C1=O,inactive: 1.03
12,CN(C)C(=O)c1ccc(-c2ccc3n(c2=O)C[C@@H]2[C@@H](CO)[C@H](C(=O)NCCc4ccccc4)N[C@H]32)cc1,inactive: 0.982
13,COc1cccc(NC(=O)N2C[C@H](O)COC[C@H]3O[C@@H](CC(=O)NC4Cc5ccccc5C4)CC[C@@H]32)c1,inactive: 1
14,CO[C@H]1CN(C)C(=O)c2cc(NC(=O)c3ccccc3)ccc2OC[C@@H](C)N(C(=O)CN(C)C)C[C@@H]1C,inactive: 0.99
15,C[C@@H]1CN([C@@H](C)CO)C(=O)c2cc(NS(=O)(=O)c3ccc(F)cc3)ccc2O[C@H]1CN(C)Cc1ccc(-c2ccccc2)cc1,inactive: 1.03
16,C[C@@H]1CCCCO[C@H](CN(C)C(=O)Nc2ccc(C(F)(F)F)cc2)[C@@H](C)CN([C@H](C)CO)C(=O)c2cc(NC(=O)CCC(F)(F)F)ccc2O1,inactive: 0.999
17,C[C@@H]1CCCCO[C@@H](CN(C)S(=O)(=O)c2cccs2)[C@H](C)CN([C@H](C)CO)C(=O)c2cc(NS(=O)(=O)c3cn(C)cn3)ccc2O1,inactive: 1.01
18,CCCC(=O)N(CCc1c[nH]c2ccccc12)[C@@H]1CC(C(=O)NCCO)=C[C@H](Oc2c(I)cc(CO)cc2OC)[C@H]1O,inactive: 0.985
19,C[C@@H]1CCCCO[C@@H](CN(C)CC2CC2)[C@H](C)CN([C@@H](C)CO)C(=O)c2cc(NC(=O)Nc3ccccc3)ccc2O1,inactive: 1.01
20,C[C@@H]1CCCCO[C@H](CN(C)Cc2ccccc2)[C@@H](C)CN([C@H](C)CO)C(=O)c2cc(NS(=O)(=O)c3ccc(F)cc3)ccc2O1,inactive: 1.01

row,SMILES,relative growth
1,COC(=O)c1c2oc(c1C(=O)OC)C(=O)N[C@H](Cc1ccccc1)Cn1cc(nn1)CNC(=O)[C@@H](Cc1ccccc1)NC(=O)N[C@@H](CO)CC2,inactive: 0.991
2,C[C@H](CO)N1C[C@H](C)[C@H](CN(C)S(=O)(=O)c2ccc3ccccc3c2)OCc2cn(nn2)CCCC1=O,inactive: 0.99
3,COc1cccc(S(=O)(=O)N(C)C[C@@H]2Oc3cc(C#CCN(C)C)ccc3S(=O)(=O)N([C@@H](C)CO)C[C@H]2C)c1,inactive: 1
4,C[C@@H]1CN([C@@H](C)CO)C(=O)c2cccc(NS(=O)(=O)c3ccc(Cl)cc3)c2O[C@@H]1CN(C)C(=O)Nc1cccc2ccccc12,inactive: 1.01
5,C[C@@H]1CN([C@@H](C)CO)S(=O)(=O)c2ccc(C#C[C@@H](C)O)cc2O[C@H]1CN(C)C(=O)Nc1ccccc1,inactive: 1.01
6,COc1ccc(S(=O)(=O)N2C[C@H](O)COC[C@@H]3O[C@@H](CC(=O)N[C@@H]4CCN(Cc5ccccc5)C4)CC[C@H]32)cc1,inactive: 0.978
7,C[C@H]1CN([C@@H](C)CO)C(=O)Cc2cc(NS(=O)(=O)c3ccc(Cl)cc3)ccc2O[C@H]1CN(C)C(=O)Nc1cccc2ccccc12,inactive: 1.02
8,C[C@H]1CN([C@@H](C)CO)C(=O)c2cc(NS(C)(=O)=O)ccc2O[C@@H]1CN(C)Cc1ccc(C(=O)O)cc1,inactive: 0.97
9,C[C@@H]1CN([C@H](C)CO)C(=O)c2cc(NC(=O)CCCN(C)C)ccc2O[C@H]1CN(C)Cc1ccc(Oc2ccccc2)cc1,inactive: 0.974
10,O=C1C[C@H](N2C(=O)CCC2=O)[C@@H]2CO[C@@H]1O2,inactive: 0.954
11,C[C@@H]1CCCCO[C@H](CN(C)C(=O)Nc2cccc3ccccc23)[C@H](C)CN([C@@H](C)CO)C(=O)c2cc(NC(=O)CCCN(C)C)ccc2O1,inactive: 0.982
12,C[C@@H]1CCCCO[C@H](CN(C)S(=O)(=O)c2ccc(Cl)cc2)[C@@H](C)CN([C@H](C)CO)C(=O)c2cc(NS(=O)(=O)c3ccc(Cl)cc3)ccc2O1,inactive: 0.987
13,C[C@@H]1CN([C@@H](C)CO)C(=O)c2cc(NS(=O)(=O)c3ccccc3)ccc2O[C@@H](C)CCCCO[C@@H]1CN(C)C(=O)Nc1ccc(C(F)(F)F)cc1,inactive: 0.98
14,C=C/C=C/[C@@H]1C(=C)CN([C@@H](Cc2ccccc2)C(=O)OC)[C@H]1[C@@H](O)CCn1cc(-c2ccc(C(=O)NO)s2)nn1,inactive: 0.99
15,C[C@@H]1CN([C@@H](C)CO)C(=O)c2cc(NC(=O)C3CC3)ccc2O[C@H]1CN(C)S(=O)(=O)c1cn(C)cn1,inactive: 1.02
16,O=S(=O)(NCCN(C/C=C/c1ccc(F)cc1)C/C=C/c1ccc(F)cc1)c1cccc2cnccc12,inactive: 1.01
17,Cc1cccc(S(=O)(=O)N2C[C@H](O)COC[C@@H]3O[C@H](CC(=O)NCc4ccc5c(c4)OCO5)CC[C@H]32)c1,inactive: 1.01
18,CC(C)NC(=O)N(C)C[C@@H]1Oc2ccc(NC(=O)CCCN(C)C)cc2C(=O)N([C@@H](C)CO)C[C@H]1C,inactive: 1

# Reference: the supplement of paper PMC9446081
